According to PubChem BioAssay AID1476 (National Center for Advancing Translational Sciences (NCATS), 2009):
Screen size: about 200,000 compounds; about 4,500 (2.2%) were called active. The inconclusive results got no clear call from the source; some entries with a clear call stand among them for comparison. Calls follow the shape of the dose curve; as a rule, active = well fitted inhibition curve with a large enough effect; inconclusive = small, poorly fitted or top-dose-only effect, or effect the other way; inactive = flat fitted curve, though single readings scatter. Potencies of inconclusive entries are doubtful fits and often do not repeat.

molecular target: Cruzipain (Trypanosoma cruzi) (UniProt P25779); experiment: qHTS Assay for Promiscuous and Specific Inhibitors of Cruzain (without detergent); conditions: purified cruzain, Z-FR-AMC fluorescence, no detergent; also: nearly all actives have a fitted effect of over 40% in size;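 as to max response, negative = inhibition: plate controls were enzyme without inhibitor for no effect and buffer without enzyme for full effect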
Outline: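 Purified cruzain at 1.5 nM, pre-incubated 15 min with compound at room temperature in 100 mM sodium acetate pH 5.5, 5 mM DTT, 0.00005% Triton X-100. Reaction started with 2 uM Z-FR-AMC; AMC fluorescence increase over 60 s gives rate.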
Potency is read from the fitted curve at half-maximal effect; tags tell the direction and shape of the fitted curve.

Sequence of UniProt P25779 (P25779 whole entry, looked up): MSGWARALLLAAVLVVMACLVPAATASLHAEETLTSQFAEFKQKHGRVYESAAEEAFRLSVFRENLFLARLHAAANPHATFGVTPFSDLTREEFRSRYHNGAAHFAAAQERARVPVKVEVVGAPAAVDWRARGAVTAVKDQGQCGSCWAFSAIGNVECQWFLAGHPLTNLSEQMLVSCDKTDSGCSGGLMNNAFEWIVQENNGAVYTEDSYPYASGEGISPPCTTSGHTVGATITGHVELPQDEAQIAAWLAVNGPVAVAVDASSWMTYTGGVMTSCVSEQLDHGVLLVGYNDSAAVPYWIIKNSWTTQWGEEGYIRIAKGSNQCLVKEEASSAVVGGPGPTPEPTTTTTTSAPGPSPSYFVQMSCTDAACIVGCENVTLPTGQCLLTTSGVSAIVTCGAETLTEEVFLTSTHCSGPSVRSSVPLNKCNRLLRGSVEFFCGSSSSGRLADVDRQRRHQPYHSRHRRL

Structure (SMILES) | max response, negative = inhibition | Potency
Cc1cc(=O)oc2ccc(OCC(=O)N(Cc3ccc(F)cc3)Cc3ccco3)cc12 | inactive: -2.31% | 
CCN(C(=O)c1cc2c(s1)-c1c(C)cccc1OC2)c1cc(C)ccc1C | inactive: -19% | 
CCOc1ccc2oc(=O)cc(CN3CCN(c4ccc(OC)cc4)CC3)c2c1 | inactive: 11.4% | 
C[N+](C)(C)CC(=O)N/N=C\c1ccncc1 | inactive: -5.35% | 
OCc1cc([C@@H](O)CNCCCCCCOCCCCc2ccccc2)ccc1O |  | inconclusive: 39.8 µM [activator, single point]
CCOC(=O)c1ccc(N2C(=O)c3n[nH]c(-c4cccs4)c3C2c2ccc(O)c(OC)c2)cc1 (stereo not given) |  | inconclusive: 25.1 µM [inhibitor, single point]
Cc1nc(NC(=O)C23CC4CC(CC(C4)C2)C3)sc1Cc1ccc2c(c1)OCO2 |  | inconclusive: 39.8 µM [inhibitor, single point]
COc1ccccc1N1CSC2=C(C#N)C(c3ccc(SC)cc3)CC(=O)N2C1 (stereo not given) |  | inconclusive: 25.1 µM [inhibitor, single point]
COc1ccc(CCNC(=O)Cc2c(C)c3cc(OC)c(OC)cc3oc2=O)cc1 | inactive: -25.1% | 
CC(CCc1ccccc1)NC(=O)c1ccccc1 (stereo not given) | inactive: 10.4% | 
CCOCN(C(=O)Cn1c(C(C)O)nc2ccccc21)c1c(C)cccc1CC (stereo not given) |  | inconclusive: 31.6 µM [activator, single point]
Cc1ccc(S(=O)(=O)Cn2nnnc2C(c2ccc(F)cc2)N2CCC(C(N)=O)CC2)cc1 (stereo not given) |  | inconclusive: 31.6 µM [activator, single point]
CNC(=O)c1ccc(Nc2nnc(-c3ccc(C)c(S(=O)(=O)NC(C)(C)C)c3)c3ccccc23)cc1 |  | inconclusive: 39.8 µM [activator, single point]
Cc1cccc(NC(=O)CSc2nc3c(c(=O)[nH]2)CN(Cc2ccc4c(c2)OCO4)CC3)c1C | inactive: 0.725% | 
COc1cc2c(cc1NC(=O)CC1SC(N3CCCC3)=NC1=O)oc1ccccc12 (stereo not given) |  | inconclusive: 20 µM [activator, partial curve]
Cc1cc(O)c(C(c2cccc(F)c2)N2CCC(C)CC2)c(=O)n1Cc1ccco1 (stereo not given) |  | inconclusive: 39.8 µM [inhibitor, single point]
COc1ccc(N2CCN(C(=O)CSCc3nc(-c4ccccc4Cl)oc3C)CC2)cc1 |  | inconclusive: 31.6 µM [activator, single point]
CCc1nc(-c2cc(S(=O)(=O)N3CCN(c4ccc(F)cc4)CC3)ccc2OC)no1 |  | inconclusive: 1.58 µM [activator, single point]
CN(c1cccc(NC(=O)COc2ccc(Cl)cc2Cl)c1)S(C)(=O)=O |  | inconclusive: 39.8 µM [activator, single point]
CCN(CC)S(=O)(=O)c1ccc(N2CCCCC2)c(C(=O)Nc2ccccc2N2CCOCC2)c1 |  | inconclusive: 39.8 µM [activator, single point]
O=C1C2C(C(=O)N1c1ccncc1)C1C=CC2C12CC2 (stereo not given) |  | inconclusive: 20 µM [activator, single point]
CCS(=O)(=O)N1Cc2ccccc2CC1C(=O)Nc1ccc(C)cc1 (stereo not given) |  | inconclusive: 12.6 µM [inhibitor, single point]

Structure (SMILES) | max response, negative = inhibition | Potency
c1cc2c(cc1Nc1nc(-c3ccc4c(c3)OCO4)cs1)OCCO2 |  | active: 10 µM
COc1cccc(-c2cc(C(F)(F)F)nc(-n3nc(C)c(Br)c3C)n2)c1 | inactive: 3.3% | 
CC(CC(=O)Nc1nncs1)c1ccccc1 (stereo not given) |  | inconclusive: 0.158 µM [activator, single point]
CC1=CC(=C(C#N)c2nc3ccccc3s2)C=C(C)N1Cc1ccco1 |  | inconclusive: 39.8 µM [inhibitor, single point]
COc1ccc(C(=O)NCC(c2cccnc2)N2CCN(c3ccc(F)cc3)CC2)cc1 (stereo not given) |  | inconclusive: 31.6 µM [activator, single point]
CCOc1ccc(NC(=O)CN(C)S(=O)(=O)c2ccc3c(c2)c(=O)n(C)c(=O)n3C)cc1 | inactive: -6.99% | 
Cc1oc(-c2ccccc2F)nc1CS(=O)(=O)CC(=O)N1CCN(c2cccc(C(F)(F)F)c2)CC1 |  | inconclusive: 12.6 µM [activator, partial curve]
N#Cc1ccc(C(=O)Nc2ccc(Cl)c(-c3nc4cc(Cl)ccc4o3)c2)c(F)c1 | inactive: 8.03% | 
COc1ccc(OC)c(NC(=O)CSC2=Nc3ccccc3C3=NC(CC(=O)NCc4ccco4)C(=O)N23)c1 (stereo not given) |  | inconclusive: 39.8 µM [activator, single point]
O=C(NCc1ccc2c(c1)CCN2C(=O)c1ccncc1)c1cccc(Cl)c1 | inactive: 4.62% | 
Cc1ccc(C)c(-n2nnc(-c3nc(-c4ccc(Cl)cc4)no3)c2N)c1 | inactive: 3.08% | 
CCSc1nnc(NC(=O)c2ccc3c(c2)OCO3)s1 |  | active: 25.1 µM
O=C(CCN1C(=O)C2CC=C(Cl)CC2C1=O)NCc1ccccc1 (stereo not given) | inactive: 2.03% | 
COC(=O)c1ccccc1NC1=C/C(=N\S(=O)(=O)c2cccs2)c2ccccc2C1=O |  | inconclusive: 39.8 µM [inhibitor, single point]
O=C(NCc1ccco1)Nc1ccc2nsnc2c1 |  | inconclusive: 39.8 µM [inhibitor, single point]
N#Cc1ccc(CN2CCC3(CC2)CCN(C(=O)c2cccc(F)c2)CC3)cc1 | inactive: -6.64% | 
CCOc1ccc(-c2cn(-c3ccc(OC)cc3)c(SCC(=O)Nc3ccccc3Cl)n2)cc1 |  | inconclusive: 39.8 µM [inhibitor, single point]
COc1ccc(F)cc1S(=O)(=O)NCCc1csc(-c2ccc(Cl)cc2)n1 | inactive: 8.07% | 
COc1ccc(Br)c2c1-c1nc(NC(=O)c3cccc(C)c3)sc1C2 |  | active: 6.31 µM
CCc1ccc(/C=C(\Cl)c2nc3cc(Cl)ccc3c(=O)[nH]2)cc1 |  | active: 10 µM
CCCCOC(=O)N1CCOCCOCCN(C(=O)OCCCC)CCOCCOCC1 |  | inconclusive: 31.6 µM [activator, partial curve]
Cc1ccc(CN(C(=O)c2cc(=O)c3cc(Cl)c(C)cc3o2)C2CCS(=O)(=O)C2)cc1 (stereo not given) |  | inconclusive: 39.8 µM [activator, single point]

Structure (SMILES) | max response, negative = inhibition | Potency
CCn1c(CC(=O)Nc2cccc(OC)c2)nnc1SCC(=O)N1CCN(c2ccccc2)CC1 |  | inconclusive: 25.1 µM [activator, partial curve]
C[C@@H](C(=O)Nc1ccc2ccccc2c1)[C@@H]1C[C@@]1(C)[C@@H](NC(=O)OCc1ccccc1)c1ccccc1 |  | inconclusive: 39.8 µM [inhibitor, single point]
CCOc1ccc(C2=C(C=C(C#N)C#N)C(c3ccccc3)c3ccccc3O2)cc1 (stereo not given) |  | active: 10 µM
CCC(CC)C(=O)Nc1c(C(=O)N2CCN(c3ccccc3F)CC2)oc2ccccc12 |  | inconclusive: 15.8 µM [activator, partial curve]
CCOc1ccc(CN2C(=O)c3ccccc3Sc3ccc(C(=O)N4CCN(C)CC4)cc32)cc1 | inactive: -0.561% | 
COC(=O)c1c(-c2cccs2)csc1NC(=O)CN1CCOCC1 |  | inconclusive: 31.6 µM [activator, single point]
COc1ccc(CCNC(=O)CN(c2ccc(C)cc2)S(=O)(=O)c2ccc(OC)cc2)cc1 | inactive: 3.28% | 
O=S(=O)(c1cnc[nH]1)N1CCN(c2ccc(Cl)cc2)CC1 |  | inconclusive: 31.6 µM [inhibitor, single point]
CCC(=O)Nc1nnc(S(=O)(=O)N(C)Cc2ccc(Cl)cc2)s1 | inactive: -27.4% | 
CN(C)S(=O)(=O)c1ccc2c(c1)c(=O)c(C(=O)N1CCN(c3cccc(Cl)c3)CC1)cn2C |  | inconclusive: 39.8 µM [activator, single point]
O=S1(=O)c2ccccc2N(Cc2ccc(Cl)cc2F)c2ccccc21 |  | active: 31.6 µM
CCOC(=O)N1CCN(c2nc(-c3ccco3)cc(C(F)(F)F)n2)CC1 |  | inconclusive: 31.6 µM [activator, single point]
COc1ccc(N2CCN(C(=O)c3cc4c(=O)n(Cc5ccccc5)ccc4nc3C)CC2)cc1 |  | inconclusive: 39.8 µM [activator, single point]
Cc1cccc(CN2C(=O)N/C(=C/c3cc(C)n(-c4ccccn4)c3C)C2=O)c1 |  | active: 25.1 µM
COc1ccccc1C1Nc2cccc3cccc(c23)N1 |  | active: 25.1 µM
Cc1ccc(CN2CCSc3ccc(C(=O)Nc4ccc(F)cc4F)cc32)cc1 |  | inconclusive: 39.8 µM [inhibitor, single point]
COC(=O)[C@@]1(Cc2ccccc2)[C@H]2c3cc(C(=O)N(C)C)n(Cc4ccc(S(C)(=O)=O)cc4)c3C[C@H]2CN1C(=O)c1ccccc1 |  | inconclusive: 7.94 µM [activator, full curve]
COc1ccc(N2CCN(C(=O)CN(c3cccc(Br)c3)S(C)(=O)=O)CC2)cc1 |  | inconclusive: 31.6 µM [activator, single point]
O=C(CN1CC(c2ccccc2)CC1=O)N/N=C/c1cc(Br)ccc1O (stereo not given) |  | inconclusive: 25.1 µM [inhibitor, single point]
CCCCN(CCCC)S(=O)(=O)c1ccc(OC)c2ncccc12 |  | inconclusive: 31.6 µM [activator, single point]
CCc1cccc(NC(=O)CN2C(=O)CCc3cc(S(=O)(=O)N4CCOCC4)ccc32)c1 |  | inconclusive: 25.1 µM [activator, partial curve]
